From PubChem BioAssay AID1347043 (National Center for Advancing Translational Sciences (NCATS), 2019)
Screen size: about 76,000 compounds; about 1,900 (2.5%) were called active. Inconclusive results, whose numbers are uncertain, are shown with a selection of clear calls. The call rests on the fitted dose curve; in most records, active means well fitted inhibition curve with a large enough effect; inconclusive means small, poorly fitted or top-dose-only effect; inactive means flat fitted curve, though single readings scatter. Potencies beside an inconclusive call are fits to weak or partial responses and may not hold up.

Target: Luciferin 4-monooxygenase (Photinus pyralis) (UniProt P08659)
Chain of UniProt P08659 (P08659 whole entry, looked up): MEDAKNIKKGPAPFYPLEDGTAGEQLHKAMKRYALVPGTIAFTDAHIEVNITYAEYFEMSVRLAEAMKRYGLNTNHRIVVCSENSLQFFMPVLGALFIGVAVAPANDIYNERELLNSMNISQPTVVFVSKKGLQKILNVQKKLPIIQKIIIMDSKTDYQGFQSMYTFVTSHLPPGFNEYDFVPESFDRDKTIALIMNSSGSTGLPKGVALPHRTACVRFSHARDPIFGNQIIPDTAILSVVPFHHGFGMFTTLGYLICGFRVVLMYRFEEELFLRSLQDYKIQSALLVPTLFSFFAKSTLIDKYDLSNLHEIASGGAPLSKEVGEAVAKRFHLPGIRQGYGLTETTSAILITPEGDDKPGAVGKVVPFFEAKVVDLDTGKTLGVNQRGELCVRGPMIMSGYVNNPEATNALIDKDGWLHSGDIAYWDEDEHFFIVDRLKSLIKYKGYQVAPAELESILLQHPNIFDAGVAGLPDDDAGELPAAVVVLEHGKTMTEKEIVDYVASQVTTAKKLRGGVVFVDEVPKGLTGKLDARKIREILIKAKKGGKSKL
Assay: Firefly luciferase inhibition profiling of diverse chemical library using quantitative high-throughput screening; further: nearly all actives have a fitted effect of over 65% in size
Details: purified P. pyralis luciferase, luminescence, biochemical; series mostly up to 115 µM
Summary of the method: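 Cell-free enzyme assay, 10nM P. pyralis luciferase, luciferin and ATP each at 10uM. Inhibition profiled over a 6-point titration, read as luminescence.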
Potency means the concentration at half of the fitted maximal effect; tags describe the fitted curve by direction and shape.

| Compound | Potency |
| --- | --- |
| COc1ncccc1-c1cnc2[nH]cc(CC(=O)Nc3ccccc3C)c2c1 | inactive |
| c1ccc(-c2nc3ccncc3[nH]2)cc1 | inconclusive: 100 µM [inhibitor, partial curve] |
| Cc1ccc(-c2cn3c(n2)N(C(=O)C2CCCO2)CCC3)cc1 (configuration not stated) | inactive |
| Cc1noc(C)c1CN1CCNc2cc(-c3ccccc3)ncc2C1 | active: 63.1 µM |
| O=C(c1ccco1)N1CC(Oc2ccc(-c3nc(-c4ccccc4)no3)cc2)C1 | inconclusive: 14.1 µM [inhibitor, full curve] |
| O=C(COc1ccc(F)cc1)Nc1cccc(-c2nnc3n2CCCC3)c1 | inconclusive: 44.7 µM [inhibitor, partial curve] |
| CC(C)Oc1cccc(-c2nc(C(=O)NCc3ccco3)cs2)c1 | inconclusive: 39.8 µM [inhibitor, partial curve] |
| O=C(Nc1cccn2nc(C3CCC3)nc12)c1ccc(F)cc1F | inactive |
| COCCN1CCNc2nc(CNCc3cnccn3)n(Cc3ccccc3)c2C1=O | inactive |
| O=C(C1CCCCC1)N1Cc2[nH]cnc2C[C@H]1c1nc(-c2ccc3ccccc3c2)no1 | inconclusive: 70.8 µM [inhibitor, partial curve] |
| CNC(=O)c1cccc(-c2cnc3[nH]cc(CC(=O)Nc4ccccc4Cl)c3c2)c1 | inconclusive: 44.7 µM [inhibitor, partial curve] |
| CCCN(CC1CCOC1)C(=O)Nc1ccc2c(c1)OCCO2 (configuration not stated) | inconclusive: 89.1 µM [inhibitor, partial curve] |
| COC[C@H]1C[C@@H](NC(=O)Nc2ccc(C(F)(F)F)cc2)[C@H](O)[C@@H]1O | inactive |
| O=c1cc(-c2cccnc2)oc2c(-c3cn[nH]c3)nccc12 | inactive |
| COc1ccc(OCc2nc(C)c(CCO)c(=O)n2CC(=O)Nc2c(C)cccc2C)cc1 | inactive |
| CCC(C(=O)Nc1ccc2c(c1)CN(Cc1ccc(OC)cc1OC)C(=O)C(C)O2)c1ccccc1 (configuration not stated) | inactive |
| CC1(NC(=O)C2CC2)CN(Cc2nc(-c3cccc(F)c3)cs2)C1 | active: 2.82 µM |
| Cc1ccc(NC(=O)Nc2ccc(C)n(CC(=O)Nc3ccc(C)c(C)c3)c2=O)cc1 | inconclusive: 0.708 µM [inhibitor, full curve] |
| Cc1ccc(C2Cn3cnc(C(=O)N4CCC(C(=O)NCc5ccccc5)CC4)c3CO2)cc1 (configuration not stated) | active: 39.8 µM |
| O=C(NCCc1ccccc1)[C@@H]1C[C@H](c2ccc(F)cc2)N([S+](=O)([O-])C2CC2)C1 | inactive |
| CN(C)C(=O)CN1C(=O)CO[C@H](c2ccc(NC(=O)Nc3ccccc3)cc2)[C@H]1CO | inconclusive: 112 µM [inhibitor, partial curve] |
| Cc1ccc(NC(=O)N2CCC(CCNC(=O)C(C)C)CC2)cc1F | inconclusive: 44.7 µM [inhibitor, partial curve] |
| Cc1cccc(NC(=O)Cn2c(-c3ccc(Cl)cc3)nc(C)c(CCO)c2=O)c1C | inactive |
| O=C(c1cccc(F)c1)N1CCCC(n2cc(-c3nc(-c4ccccc4)no3)nn2)C1 (configuration not stated) | inconclusive: 50.1 µM [inhibitor, partial curve] |

| Compound | Potency |
| --- | --- |
| CN(C)CC(=O)N1CCC2(C1)CN(C)c1ccc(C(=O)Nc3ccccc3)cc12 (configuration not stated) | inconclusive: 63.1 µM [inhibitor, full curve] |
| COc1ccc(-c2noc(C(=O)NC(C)(C)C)c2[C@H](C)O)cc1 | inconclusive: 79.4 µM [inhibitor, partial curve] |
| c1c[nH]c(-c2nc3ncccc3[nH]2)c1 | inconclusive: 126 µM [inhibitor, partial curve] |
| Cc1cc(C(=O)NCc2c(C)ncc3c2CCNC3)ccc1F | inactive |
| COc1ccc(C(=O)NC[C@@H]2C=C(C)[C@H](CC(=O)O)C[C@H]2C(C)C)cc1 | inactive |
| C[C@@H]1C(=O)O[C@H]2[C@H]1CC[C@@]1(C)Cc3sc(Nc4cccnc4)nc3[C@@H](C)[C@H]21 | active: 0.794 µM |
| Cc1noc(-c2ccc(OC3CN(C(=O)c4sccc4C)C3)cc2)n1 | inactive |
| OCc1cc(CC2(NCc3ccc(CO)o3)COC2)no1 | inactive |
| CCOCC1(C)COc2ccc(C(=O)Nc3ccc(OC)nc3)cc2N1 (configuration not stated) | inconclusive: 112 µM [inhibitor, partial curve, poor fit] |
| COc1ccccc1-c1nc(C(=O)NCc2ccc3c(c2)OCO3)n2ccccc12 | inactive |
| O=C(NC1CCCCC1)C1CN(S(=O)(=O)c2cc(F)cc(F)c2)CC12CCOCC2 (configuration not stated) | inactive |
| CCN1C(=O)CCC2(C(=O)NCCc3c[nH]c4ccccc34)CCCC=C12 (configuration not stated) | inconclusive: 79.4 µM [inhibitor, partial curve, poor fit] |
| O=C(C1CCCCC1)N1CC[C@H](c2nc3ccccc3s2)C1 | inconclusive: 50.1 µM [inhibitor, partial curve] |
| CCC(NC(=O)c1ccc2nc(-c3ccc(F)cc3)cn2c1)c1ncc(C)[nH]1 (configuration not stated) | active: 7.94 µM |
| CCC(C)NC(=O)c1cc2n(n1)CC(c1ccc3c(c1)OCO3)OC2 (configuration not stated) | inactive |
| CN(C)c1ccc(CN2CC[C@H](c3nc4cc(Cl)ccc4o3)C2)cc1 | inconclusive: 126 µM [inhibitor, single point] |
| CN(C)CCOCC1(C)COc2ccc(C(=O)Nc3cccc(Cl)c3)cc2N1 (configuration not stated) | active: 44.7 µM |
| CCCCC(=O)N1CCC(N(Cc2ccccc2)C2CCOCC2)CC1 | inactive |
| O=C(NC1CCCCC1)C1CCN(C(=O)c2ncn3c2COC(c2ccc(Cl)cc2)C3)CC1 (configuration not stated) | inconclusive: 39.8 µM [inhibitor, partial curve] |
| CN(Cc1cccc2cnccc12)C(=O)c1cn(Cc2ccccc2F)nn1 | inactive |
| O=C1Nc2ccc(/C=C/c3ccccc3)cc2C(=O)N2CC[C@H](NS(=O)(=O)c3cccs3)[C@@H]12 | inconclusive: 31.6 µM [inhibitor, partial curve] |
| CCN1C(=O)CCC2(C(=O)Nc3ccc(C)cc3)CCCC=C12 (configuration not stated) | inconclusive: 56.2 µM [inhibitor, partial curve] |
| Nc1ccc(C(=O)N2CCCn3nc(C(=O)Nc4ccccc4)cc3C2)cn1 | active: 7.08 µM |
